Substitutions are numbered along the chain they refer to. Results are given in words; binding and its absence hold for the method and conditions named. In cells and extracts the contact can be indirect. Some binding calls cover weakened binding; strength is not graded here. For some assays here: Sequences can lack the tags named with a protein.
Assays:
[1] = target: T1, RhoGDIα (endogenous, mouse brain) (mouse (endogenous in brain)) (UniProt Q99PT1); test: co-IP; agarose-conjugated mouse anti-RhoGDIα antibody, overnight at +4 °C, on Lis1fl/+ or Lis1fl/- mouse brain lysate; CelLyticM with 20 mM NEM; blots for RhoC, RhoA, Rac3
T1 sequence: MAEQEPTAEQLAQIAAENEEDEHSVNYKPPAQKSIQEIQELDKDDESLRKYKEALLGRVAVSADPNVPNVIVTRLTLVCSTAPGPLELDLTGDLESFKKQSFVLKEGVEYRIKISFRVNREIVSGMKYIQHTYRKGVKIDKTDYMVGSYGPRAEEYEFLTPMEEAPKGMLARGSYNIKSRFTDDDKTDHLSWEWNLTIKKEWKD

Sequences of proteins named here, by UniProt entry; tags and fusion partners are left off.
UniProt Q62159: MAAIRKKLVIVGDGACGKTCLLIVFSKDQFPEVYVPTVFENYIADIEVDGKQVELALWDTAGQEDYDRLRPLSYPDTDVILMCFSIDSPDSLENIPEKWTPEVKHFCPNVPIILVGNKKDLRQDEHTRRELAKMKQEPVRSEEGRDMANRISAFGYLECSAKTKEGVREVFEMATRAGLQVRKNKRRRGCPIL
UniProt Q9QUI0: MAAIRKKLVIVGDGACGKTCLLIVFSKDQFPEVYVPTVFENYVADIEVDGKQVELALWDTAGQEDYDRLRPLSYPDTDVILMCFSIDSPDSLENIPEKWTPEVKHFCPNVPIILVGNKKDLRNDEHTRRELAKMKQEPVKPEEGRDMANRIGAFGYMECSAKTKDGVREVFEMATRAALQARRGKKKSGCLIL

[2] = target: T2, RhoGDIα (endogenous, 293-CDC42 cells) (human (endogenous in HEK293T-derived 293-CDC42 cells)) (UniProt P52565); test: proximity ligation; Duolink In Situ Orange kit on fixed, permeabilised 293-CDC42 cells, control or LNX1-overexpressing; probes RhoC/RhoGDIα or HA/RhoGDIα
T2 sequence: T1 sequence with I71V, R74G, T81S, M162V, N176S, E201D

[3] = target: T3, FLAG-ARHGDIA (human (from the printed accession)) (UniProt P52565); test: co-IP; EZview Red Anti-FLAG M2 Affinity Gel on lysates of co-transfected HEK293T cells; FLAG-tagged protein as bait, EGFP-tagged protein detected by blot
T3 sequence: T1 sequence with I71V, R74G, T81S, M162V, N176S, E201D

[4] = target: T4, LNX1-Myc-FLAG (mouse (from the printed accession)) (UniProt O70263); test: as above
T4 sequence: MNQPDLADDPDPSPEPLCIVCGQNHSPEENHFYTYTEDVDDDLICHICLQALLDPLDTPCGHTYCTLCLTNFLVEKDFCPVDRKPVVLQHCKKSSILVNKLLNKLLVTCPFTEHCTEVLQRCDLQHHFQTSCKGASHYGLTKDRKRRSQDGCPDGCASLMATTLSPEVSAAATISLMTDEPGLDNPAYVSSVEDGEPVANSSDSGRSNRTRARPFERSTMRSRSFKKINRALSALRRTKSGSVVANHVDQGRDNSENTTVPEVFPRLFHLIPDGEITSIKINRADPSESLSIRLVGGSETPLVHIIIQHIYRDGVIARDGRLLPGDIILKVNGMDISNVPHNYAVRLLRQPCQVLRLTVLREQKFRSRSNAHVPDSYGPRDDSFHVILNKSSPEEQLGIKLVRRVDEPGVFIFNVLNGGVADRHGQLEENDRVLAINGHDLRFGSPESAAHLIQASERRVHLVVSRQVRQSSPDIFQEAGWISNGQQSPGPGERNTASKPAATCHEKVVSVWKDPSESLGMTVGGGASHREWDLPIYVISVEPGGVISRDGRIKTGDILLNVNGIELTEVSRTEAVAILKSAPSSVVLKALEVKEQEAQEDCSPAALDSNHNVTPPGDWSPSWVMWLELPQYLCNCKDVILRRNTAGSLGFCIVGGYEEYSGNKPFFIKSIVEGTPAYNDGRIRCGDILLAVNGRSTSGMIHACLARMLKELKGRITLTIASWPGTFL

“RhoC (endogenous, mouse brain) (from UniProt Q62159 1-193)” was tested, and the binding [1] was “binds”.

“HA-tagged Cdc42 (293-CDC42 cells) (from UniProt P60766-2 1-191)” was tested, and the binding [2] was “binds”.

“RhoA (endogenous, mouse brain) (from UniProt Q9QUI0 1-193)” was tested, and the binding [1] was “binds”.

B1: EGFP-LIS1 (protein, UniProt P63005-1 1-410)
chain: MVLSQRQRDELNRAIADYLRSNGYEEAYSVFKKEAELDMNEELDKKYAGLLEKKWTSVIRLQKKVMELESKLNEAKEEFTSGGPLGQKRDPKEWIPRPPEKYALSGHRSPVTRVIFHPVFSVMVSASEDATIKVWDYETGDFERTLKGHTDSVQDISFDHSGKLLASCSADMTIKLWDFQGFECIRTMHGHDHNVSSVAIMPNGDHIVSASRDKTIKMWEVQTGYCVKTFTGHREWVRMVRPNQDGTLIASCSNDQTVRVWVVATKECKAELREHEHVVECISWAPESSYSSISEATGSETKKSGKPGPFLLSGSRDKTIKMWDVSTGMCLMTLVGHDNWVRGVLFHSGGKFILSCADDKTLRVWDYKNKRCMKTLNAHEHFVTSLDFHKTAPYVVTGSVDQTVKVWECR
For B1, the binding [3] was “no binding” and the binding [4] was “binds”.

Reference: PMC9529947
